Laboratory results reported in patent EP0600950B1, “AMIDE TETRAZOLE ACAT INHIBITORS” (priority 1991, dated 1993).
For some assays here: The name of at least one read-out is uncertain. For some assays here: At least one structure is not confirmed: it was looked up by name or label, or the drawing left a doubt.

Key:
[1] = biological target: acyl-CoA: cholesterol acyltransferase (ACAT); experiment: in vitro ACAT inhibition, rabbit intestinal microsomes (IAI); assay type: biochemical; details: radiolabeled cholesterol oleate formed from radiolabeled oleic acid
Source text: The test assesses the ability of a test compound to inhibit the acylation of cholesterol by oleic acid by measuring the amount of radiolabeled cholesterol oleate formed from radiolabeled oleic acid in a tissue preparation containing rabbit intestinal microsomes (designated IAI) or from rat liver microsomes (designated LAI).

male Sprague-Dawley rats = experiment: in vivo screen APCC, cholesterol-fed rats, blood cholesterol; details: high fat, blood cholesterol vs vehicle
Source text: In one in vivo screen designated APCC, male Sprague-Dawley rats (200 to 225 g) were randomly divided into treatment groups and dosed at 4 PM with either vehicle (CMC/Tween) or suspensions of compounds in vehicle. The normal chow diet was then replaced with a high fat, high cholesterol diet with 0.5% cholic acid. The rats consumed this diet ad libitum during the night and were sacrificed at 8 AM to obtain blood samples for cholesterol analysis using standard procedures. Statistical differences between mean cholesterol values for the same vehicle were determined using analysis of variance followed by Fisher's least significant test.

[2] = Table 3 (side chain on tetrazole nitrogen), dosed at 30 mg/kg unless otherwise noted, high cholesterol diet overnight

SMILES	APCC (% ΔTC) (male Sprague-Dawley rats; [2])	further results
CCCCCCCCCCCCn1nnc(C(F)(C(=O)Nc2c(C(C)C)cccc2C(C)C)c2ccccc2)n1 (racemic) [Example 65, (±)-N-[2,6-Bis(1-methylethyl)phenyl]-2-dodecyl-α-fluoro-α-phenyl-2H-tetrazole-5-acetamide]	–	IC50 [1]: 15 nM
CCCCCCCCCCCCCCn1nnnc1CC(=O)Nc1c(OC)cc(OC)cc1OC [Example 50, 1-tetradecyl-N-(2,4,6-tri-methoxyphenyl)-1H-tetrazole-5-acetamide]	–	APCC (% ΔTC) (male Sprague-Dawley rats; Table 2, dosed at 30 mg/kg unless otherwise noted, high cholesterol diet with 0.5% cholic acid overnight): -34%
CCCCCCCCCCc1nnn(CC(=O)Nc2c(C(C)C)cccc2C(C)C)n1 [Example 88, N-[2,6-bis(1-methylethyl)phenyl]-5-decyl-2H-tetrazole-2-acetamide]	-62%	–
CCCCCCCCCCc1nnnn1CC(=O)Nc1c(C(C)C)cccc1C(C)C [Example 89, N-[2,6-bis(1-methylethyl)phenyl]-5-decyl-1H-tetrazole-1-acetamide]	-35%	–
CCCCCCCCCCCCc1nnn(CC(=O)Nc2c(C(C)C)cccc2C(C)C)n1 [Example 91]	-68%	–
CCCCCCCCCCCCc1nnn(CC(=O)Nc2c(OC)cc(OC)cc2OC)n1 [Example 97, 5-dodecyl-N-(2,4,6-trimethoxy-phenyl)-2H-tetrazole-2-acetamide]	-69%	–
CCCCCCCCCCCCc1nnn(CC(=O)Nc2ccc(F)cc2F)n1 [Example 101, N-(2,4-difluorophenyl)-5-dodecyl-2H tetrazole-2-acetamide]	+8%	–
CCCCCCCCCCCCc1nnn(C(C)(C)C(=O)Nc2c(OC)cc(OC)cc2OC)n1 [Example 102, 5-dodecyl-α,α-dimethyl-N-(2,4,6-trimethoxyphenyl)-2H-tetrazole-2-acetamide]	-47%	–
